Laboratory results taken from article PMC5247395 (EJNMMI Research, 2017).
Several values for one entry are separate records, joined by “and”; a condition that tells them apart may be missing. Identical values can stand only once.

Tested on: PC-3 PIP/flu tumor-bearing mice
Assay: Biodistribution in PC-3 PIP/flu tumor-bearing mice
Details: ratio for PC-3 PIP tumor

Row | SMILES | Tumor-to-blood (15 min p.i.) | Tumor-to-kidney (15 min p.i.) | Tumor-to-liver (15 min p.i.) | Tumor-to-blood (30 min p.i.) | Tumor-to-kidney (30 min p.i.) | Tumor-to-liver (30 min p.i.) | Tumor-to-blood (2 h p.i.) | Tumor-to-kidney (2 h p.i.) | Tumor-to-liver (2 h p.i.) | Tumor-to-blood (6 h p.i.) | Tumor-to-kidney (6 h p.i.) | Tumor-to-liver (6 h p.i.)
1 | O=C([O-])CN1CCN(CC(=O)[O-])CCN(CC(=O)NCC2CCC(C(=O)NC(Cc3ccc4ccccc4c3)C(=O)NCCCCC(NC(=O)NC(CCC(=O)O)C(=O)O)C(=O)O)CC2)CCN(CC(=O)[O-])CC1.[44Sc+3] (stereo not shown) [^44Sc-PSMA-617] | 5.38 ± 0.90 | 0.97 ± 0.21 | 18.8 ± 5.02 | 17.6 ± 1.23 | 1.60 ± 0.22 | 55.6 ± 7.36 | >200 and 227 ± 63.4 | 7.98 ± 1.71 | >200 and 216 ± 33.4 | 194 ± 21.0 | 17.0 ± 2.58 | 167 ± 32.5
2 | O=C([O-])CN(CCN(CC(=O)[O-])Cc1cc(CCC(=O)NCCCCCC(=O)NCCCC[C@H](NC(=O)N[C@@H](CCC(=O)O)C(=O)O)C(=O)O)ccc1[O-])Cc1cc(CCC(=O)O)ccc1[O-].[68Ga+3] [^68Ga-PSMA-11] | 6.10 ± 1.84 | 0.41 ± 0.14 | 15.3 ± 3.96 | 20.5 ± 6.40 | 0.58 ± 0.10 | 31.7 ± 2.48 | – | 0.69 ± 0.12 | 71.3 ± 7.48 | – | – | –
3 | O=C([O-])CN1CCN(CC(=O)[O-])CCN(CC(=O)NCC2CCC(C(=O)NC(Cc3ccc4ccccc4c3)C(=O)NCCCCC(NC(=O)NC(CCC(=O)O)C(=O)O)C(=O)O)CC2)CCN(CC(=O)[O-])CC1.[68Ga+3] (stereo not shown) [^68Ga-PSMA-617] | 4.15 ± 0.24 | 1.26 ± 0.25 | 6.02 ± 0.59 | 16.9 ± 4.22 | 3.62 ± 0.81 | 19.0 ± 2.32 | >200 and 387 ± 98.1 | 15.9 ± 3.26 | 35.2 ± 9.94 | – | – | –
4 | O=C([O-])CN1CCN(CC(=O)[O-])CCN(CC(=O)NCC2CCC(C(=O)N[C@@H](Cc3ccc4ccccc4c3)C(=O)NCCCC[C@H](NC(=O)N[C@@H](CCC(=O)O)C(=O)O)C(=O)O)CC2)CCN(CC(=O)[O-])CC1.[177Lu+3] (stereo partly shown) [^177Lu-PSMA-617] | 4.45 ± 0.66 | 1.06 ± 0.14 | 20.4 ± 5.48 | 16.0 ± 3.52 | 2.09 ± 0.24 | 53.1 ± 6.68 | – | 11.6 ± 0.87 | >200 and 346 ± 22.7 | 2988 ± 351 | 22.5 ± 1.79 | 617 ± 66.2
